Source: ChEMBL document CHEMBL1157539, “Thousands of chemical starting points for antimalarial lead identification” (Nature, 2010)
Whole data set: some 13,000 compounds, median “IFI” near 4, cut for the highest 2% near 17. The list shows a part of the results.

Assay: GSK_TCMDC: Inhibition Frequency Index (IFI). The number of non-kinase HTS assays where a compound showed > 50 % inhibition, expressed as a percentage of the number of such assays in which the compound was tested (-0 is zero)
Type: functional

Structure (SMILES)	IFI [%]
CN1CCC(C(=O)Nc2cccc(-c3ccc(-c4nc5cc(F)ccc5[nH]4)cc3)c2)CC1	4.31
Fc1cccc2sc(Nc3nc(-c4ccccn4)cs3)nc12	8
COc1ccc2nccc(NC(=O)N3CCC(NCCOc4cc(F)cc(F)c4)CC3)c2n1	2.24
Fc1cccc(Nc2nc(NCCc3ccc(Cl)cc3)nc(Nc3cccc(F)c3)n2)c1	3.85
COc1ccc(Nc2nccc(N3CCC(NC(=O)C(C)c4ccc(Cl)cc4)CC3)n2)cc1 (configuration not stated)	3.08
COc1ccc2ncc(F)c(CCN3CCC(CNC(=O)C(=O)c4c[nH]c5ccccc45)CC3)c2n1	2.96
Nc1cc(-c2ccc3c(N)nccc3c2)ccc1Cl	0
C=CCc1ccc(C2CCN(CCCCNC(=O)c3ccc(NC(=O)c4ccc(Cl)cc4)cc3)CC2)cc1	2.22
Cn1cc(CCNc2ccnc(N3CCC(c4ncc[nH]4)CC3)n2)c2ccccc21	8.33
CN(CCCN(C)c1cc(NC(=O)c2ccc(F)cc2)ccn1)Cc1cccc(F)c1	2.94
CCCCCCCN(Cc1ccc(OC(C)(C)C(=O)OCC)cc1)C(=O)Nc1ccccc1OC(F)(F)F	1.43
CC1(C)N=C(NC(=O)c2ccc([N+](=O)[O-])cc2)N=C(N)N1OCc1ccc2ccccc2c1	1.46
COc1ccc2c(OC)cccc2c1CNCCCCCCNCc1c(OC)ccc2c(OC)cccc12	13.7
Clc1ccc2nc(-c3cccnc3)[nH]c2c1	1.33
Cc1cccc(C(=O)Nc2ccnc(N3CCC(N(C)Cc4ccc(C#N)cc4)CC3)c2)c1	2.44
Cc1ccc(O)cc1Nc1ccnc2ccc(C(C)(C)C)cc12	0.74
CCN(CCCN1CCCCC1)c1nc(C)cc(Nc2ccc(Cl)cc2)n1	1.85
Nc1ccc(-c2ccc3ccnc(N)c3c2)cn1	5.56
CCOc1cc(C(=O)NC2CCN(Cc3ccccc3)CC2)ccc1-c1nc2cc(Cl)ccc2[nH]1	0.7
O=C(NC(Nc1ccc([N+](=O)[O-])cc1)C(Cl)(Cl)Cl)c1ccc(Cl)cc1 (configuration not stated)	19.9
CN1CCC(C(=O)N(Cc2ccc(-c3ccc(CNCCc4ccccc4)cn3)cc2)Cc2cccc(F)c2)CC1	5.56
COc1ccc2ncc(F)c(CCN3CC(O)C(CNCc4ccc5c(n4)NC(=O)CS5)C3)c2c1 (configuration not stated)	2.86
O=C(NCCN1CCCC1)c1cccc(Nc2nccc(Nc3ccc(Oc4ccccc4)cc3)n2)c1	5.88

Structure (SMILES)	IFI [%]
CSc1ccc2ccccc2c1CCNCCCCNCCc1c(SC)ccc2ccccc12	17
Cc1cccc2nc(-c3ccc(-c4cccc(CN5CC(C)OC(C)C5)c4)s3)[nH]c12 (configuration not stated)	5.63
Cc1sc2nc(CSc3ccccc3)nc(N3CCN(CC(=O)N4CCCC4)CC3)c2c1C	3.77
Cc1cc(=O)c2cc(-c3ccc(OC(F)(F)F)cc3)ccc2[nH]1	0
Cc1noc(-c2ccc(NC[C@@H](C)NC[C@H](O)c3cccc(Cl)c3)cc2)n1	0.69
Cc1cccc2nc(-c3ccc(-c4cccc(CNCCN(C)C)c4)cc3)[nH]c12	6.73
CC(C)C1C(O)=C(c2ccc3ccccc3c2)C(=O)N1CC1CCCCC1 (configuration not stated)	0.68
Fc1cccc(COc2ccc(Nc3ncnc4cc(/C=C/[C@@H]5CCCN5)sc34)cc2Cl)c1	8.55
Cc1nnc2c(NC(=O)NC3CCCC3)cc3cc(-c4ccc(CN5CCN(C)CC5)cc4)ccc3n12	6.45
COc1cc(Cc2cnc(N)nc2N)cc(OCCCN2C(=O)c3ccccc3C2=O)c1OC	0
CN(C)CCn1cc(C(=O)c2cc(Cl)ccc2O)cc1-c1nc2ccccc2c(=O)[nH]1	1.96
Cc1cc(N[C@@H](Cc2ccccc2)C(=O)NC2CCCC2)nc(NCCOc2ccccc2)n1	15.6
CC1CN(c2cnn(Cc3cccc(NC(=O)Nc4ccc(F)cc4[N+](=O)[O-])c3)c(=O)c2Cl)CC(C)N1 (configuration not stated)	-0
CN1CCC(NCc2cccc(-c3cccc(S(=O)(=O)NCc4ccccc4)c3)c2)CC1	11.2
O=C(Nc1ccccc1)NC1CCN(CCC2(c3ccc(Cl)c(Cl)c3)COCN(C(=O)c3ccccc3)C2)C1 (configuration not stated)	3.47
COc1cc2nc(N3CCC(CCCC4CCNCC4)CC3)nc(NCc3ccccn3)c2cc1OC	6.34
O=[N+]([O-])c1cccc(CNCC2CCC(CNCc3cccc([N+](=O)[O-])c3)CC2)c1 (configuration not stated)	8.7
COc1cccc(Nc2nccc(-c3c(-c4cccc(NC(=O)c5c(F)cccc5F)c4)nn4ccccc34)n2)c1	4.39
CCOC(=O)N[C@@H]1CN[C@@H](C#Cc2cc3c(Nc4ccc(OCc5cccc(F)c5)c(Cl)c4)ncnc3s2)C1	1.48
COc1ccc2nc(N(CCCn3ccnc3)C(=O)C=Cc3cccs3)sc2c1	-0
CCn1c(-c2nonc2N)nc2cnc(Oc3cccc(NC(=O)c4ccc(OCCN5CCCC5)cc4)c3)cc21	7.48
Cc1nnc(NC(=O)c2cn(-c3ccccc3)nc2-c2ccccc2C)o1	-0
COc1ccc2ncc(F)c(CCN3CC(O)C(CNCc4ccc5oc(=O)ccc5c4)C3)c2n1 (configuration not stated)	1.92

Structure (SMILES)	IFI [%]
Cc1cc(-c2ccc3occ(CCN)c3c2)cnc1N	3.13
CC(NCC(O)Cn1c2ccccc2c2ccccc21)c1ccccc1 (configuration not stated)	7.64
CC(C)N1CCC(NCc2ccc(-c3ccc(Cl)cc3)cc2)CC1	5
Cc1ccc(C(=O)Nc2cccc([N+](=O)[O-])c2)cc1S(=O)(=O)N1CC(C)CC(C)C1 (configuration not stated)	2.9
C=C1C(C(=O)OCC)=CN(CC)c2cc(O[C@@H]3CCN(C(=O)OC(C)(C)C)C3)ccc21	-0
COc1ccc2c(-c3ccccc3)noc2c1	2.07
c1cc(-c2ccc(CNC3CCOCC3)cc2)cc(-c2nc3ccccc3[nH]2)c1	0.97
COc1ccc(-c2nc(NCc3ccccc3)c3cc(OC)c(OC)cc3n2)cc1	2.99
COc1ccc(-c2ncnc(C(F)(F)F)c2-c2ccc(Cl)cc2)c(O)c1	1.5
CCc1c(C)nc(-n2nc(C)cc2NC(=O)CCc2ccccc2)[nH]c1=O	7.84
O=C(NC1CCN(Cc2ccccc2)CC1)c1cccc(-c2cc3cc(Cl)c(Cl)cc3[nH]2)c1	0.72
O=c1cc(NCCCNCc2cccc(I)c2)[nH]c2ccccc12	5.04
N=C(N)NC(=O)Nc1cc(F)c(Cl)c(Br)c1	0.73
CC(C)CCNC(=N)c1ccc(OCCCCCOc2ccc(C(=N)NCCC(C)C)cc2)cc1	2.88
N=C(N)c1cccc(-c2cc(-c3cccc(C(=N)N)c3)on2)c1	-0
NC1CCCN(Cc2ccc(-c3cccc(-c4nc5ccccc5[nH]4)c3)cc2)C1 (configuration not stated)	11.3
CCCCCC(NCCCC)c1ccc(OCCOc2ccc(C(CCCCC)NCCCC)cc2)cc1 (configuration not stated)	16.3
Cc1ccc2[nH]c(C)cc(=NN=Cc3ccccc3Cl)c2c1	0.7
CC(C)C[C@H](NC(=O)c1cc2ccccc2s1)C(=O)N[C@H]1CCN(Cc2ccc(OC[C@@H]3CCCN3C)c3ccccc23)C1	13.3
COc1ccc2nccc(N3CCC(SCCNS(=O)(=O)c4ccc5c(c4)OCCO5)C3)c2n1 (configuration not stated)	10.8
COC(=O)c1cccc(CNCc2ccc(-c3ccc(-c4nc5cc(F)ccc5[nH]4)cc3)cc2)c1	9.62
O=C(Nc1ccc(Oc2ccccc2)cc1)N1CCC(CCN2CCC(c3c[nH]c4ccccc34)CC2)CC1	5.71
COc1cc(Nc2nccc(N3CCC(NC(=O)C4COc5ccccc5O4)C3)n2)cc(OC)c1OC (configuration not stated)	1.54

Structure (SMILES)	IFI [%]
CC(C)c1ccc(CN(C)CCCCNC(=O)c2ccc(NC(=O)c3ccc(Cl)cc3)cc2)cc1	2.61
Cc1cccc2nc(-c3ccc(-c4ccc(NC(=O)NCc5cccc(F)c5)cc4)s3)[nH]c12	6
Nc1c2c(nc3ccc(NC(=O)CCCCCc4ccccc4)cc13)CCCC2	6.16
COc1ccc2[nH]cc(C3CCN(CCC4CCN(C(=O)/C=C/c5ccc(Cl)c(Cl)c5)CC4)CC3)c2c1	5.19
CN1CCC(C(=O)Nc2ccc(-c3ccc(-c4nc5cc(C(F)(F)F)ccc5[nH]4)s3)cc2)CC1	7.83
CC(C)NCc1ccc(-c2cccc(NC(=O)c3ccc(C#N)cc3)c2)cc1	-0
Cc1ccc(Cn2ncc(N3CCC(N)CC3)c(Cl)c2=O)cc1NC(=O)Nc1ccc(-c2ccccc2)cc1	11
O=C1C(C2CCC(c3ccc(Cl)cc3)CC2)=C2OCC3COC2(O3)c2ccccc21 (configuration not stated)	0.75
CNC(=O)Cc1ccc(C(=O)Nc2cccc(-c3ccc(-c4nc5cccc(C)c5[nH]4)s3)c2)cc1	7.21
COc1cc(F)c2nccc([C@@H](O)CN3CCC(NC(=O)OCc4ccccc4)C(F)C3)c2c1 (some centres not stated)	12.7
COc1cccc(-c2cc(C(=O)NC3CCC(N4CCC(c5ccccc5C)CC4)CC3)[nH]n2)c1 (configuration not stated)	9.84
Cc1cc2cc(-c3ccc(CN)cc3)ccc2nc1N	3.88
O=C1COc2ccc(CNC3CCC(O)(CCc4ccnc5cc6c(cc45)OCCO6)CC3)nc2N1 (configuration not stated)	0.73
Cc1cc(C2CCN(CCCCNC(=O)c3ccc(-c4ccc(C#N)cc4)cc3)CC2)c(C)cc1OCCO	3.7
CC1(C)N=C(N)N=C(N)N1OCc1cc2ccccc2cc1CON1C(N)=NC(N)=NC1(C)C	2.8
CCN1CCN(CCCNc2c3ccc(Cl)cc3nc3ccc(O)cc23)CC1	4.48
O=C(/C=C/c1cc(C(F)(F)F)ccc1F)NCCCCCN1CCC(c2c[nH]c3ccccc23)CC1	4.26
O=S(=O)(NCCN1CCCC1)c1cccc(-c2cccc(CNCCc3cccs3)c2)c1	9.01
CCCCCCn1ccc2c3c(N)nc(N)nc3ccc21	6.45
OC(c1ccccc1)C1CN(Cc2ccccc2)CCC1(O)c1ccccc1 (configuration not stated)	2.31
N#Cc1ccc(N2CCN(Cc3cccc(-c4cccc(-c5nc6cc(C(F)(F)F)ccc6[nH]5)c4)c3)CC2)nc1	1.92
COc1ccc2[nH]ccc(=NN=Cc3cccc(Cl)c3)c2c1	4.58
O=C(Nc1ccc(-c2nc3ccccc3[nH]2)cc1)C1CCN(Cc2cccc(F)c2F)CC1	4.76
